No constants are given. Whether binding was seen depends on the method and setting. Binding seen in cells or lysates may run through a third protein. Some results given as binding are weak or reduced against the parent protein; the word gives no strength. For part of these data: Where a sequence is shown, tags or fusion partners need not be part of it. Each block holds one molecule with its values, some of them ahead of it.
What was measured:
[1] = molecular target: HA-tagged TRPM7 (pcDNA5-FRT-TO-HA-TRPM7) (mouse) (UniProt Q923J1); experiment: co-IP; HA-tagged channel coexpressed with FLAG-tagged CNNM1-4 in HEK-293T cells, immunoprecipitated overnight with HA-agarose; lysis buffer 50 mM TRIS (pH 7.4), 150 mM NaCl, 1% Igepal 630, 4°C; growth medium with or without 20 mM MgCl2 (Fig 1A)
[2] = molecular target: HA-TRPM6 (pcDNA5-FRT-TO-HA-TRPM6) (UniProt Q9BX84); experiment: as above
[3] = molecular target: FLAG-tagged human CNNM1 (pCMV-4A) (human) (UniProt Q9NRU3); experiment: co-IP; FLAG-CNNM isoforms individually expressed in HEK-293T cells and immunoprecipitated, blots for native CNNM isoforms (S16 Fig A-D)
[4] = molecular target: T1, FLAG-tagged human CNNM3 (pCMV-4A) (human) (UniProt Q8NE01); experiment: as above
T1 sequence: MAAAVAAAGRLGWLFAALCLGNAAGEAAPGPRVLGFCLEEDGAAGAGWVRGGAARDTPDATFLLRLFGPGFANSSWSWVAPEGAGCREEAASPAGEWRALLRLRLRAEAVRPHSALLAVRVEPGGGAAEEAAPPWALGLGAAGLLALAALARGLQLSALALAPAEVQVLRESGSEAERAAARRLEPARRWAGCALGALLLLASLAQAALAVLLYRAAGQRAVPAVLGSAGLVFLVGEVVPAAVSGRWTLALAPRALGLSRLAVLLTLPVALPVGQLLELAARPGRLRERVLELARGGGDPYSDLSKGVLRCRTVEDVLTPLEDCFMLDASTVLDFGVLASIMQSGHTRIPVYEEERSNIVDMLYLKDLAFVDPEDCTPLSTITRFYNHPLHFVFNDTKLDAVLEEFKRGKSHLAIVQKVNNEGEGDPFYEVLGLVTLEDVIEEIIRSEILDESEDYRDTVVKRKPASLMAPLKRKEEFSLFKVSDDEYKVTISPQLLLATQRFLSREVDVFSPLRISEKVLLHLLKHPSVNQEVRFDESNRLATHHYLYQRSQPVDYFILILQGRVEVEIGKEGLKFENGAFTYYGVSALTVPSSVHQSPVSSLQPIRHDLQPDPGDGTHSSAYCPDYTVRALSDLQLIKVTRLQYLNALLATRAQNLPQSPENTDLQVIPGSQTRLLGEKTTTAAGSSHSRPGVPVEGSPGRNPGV

Chains of the proteins cited; added tags and fusions are not shown.
UniProt Q923J1: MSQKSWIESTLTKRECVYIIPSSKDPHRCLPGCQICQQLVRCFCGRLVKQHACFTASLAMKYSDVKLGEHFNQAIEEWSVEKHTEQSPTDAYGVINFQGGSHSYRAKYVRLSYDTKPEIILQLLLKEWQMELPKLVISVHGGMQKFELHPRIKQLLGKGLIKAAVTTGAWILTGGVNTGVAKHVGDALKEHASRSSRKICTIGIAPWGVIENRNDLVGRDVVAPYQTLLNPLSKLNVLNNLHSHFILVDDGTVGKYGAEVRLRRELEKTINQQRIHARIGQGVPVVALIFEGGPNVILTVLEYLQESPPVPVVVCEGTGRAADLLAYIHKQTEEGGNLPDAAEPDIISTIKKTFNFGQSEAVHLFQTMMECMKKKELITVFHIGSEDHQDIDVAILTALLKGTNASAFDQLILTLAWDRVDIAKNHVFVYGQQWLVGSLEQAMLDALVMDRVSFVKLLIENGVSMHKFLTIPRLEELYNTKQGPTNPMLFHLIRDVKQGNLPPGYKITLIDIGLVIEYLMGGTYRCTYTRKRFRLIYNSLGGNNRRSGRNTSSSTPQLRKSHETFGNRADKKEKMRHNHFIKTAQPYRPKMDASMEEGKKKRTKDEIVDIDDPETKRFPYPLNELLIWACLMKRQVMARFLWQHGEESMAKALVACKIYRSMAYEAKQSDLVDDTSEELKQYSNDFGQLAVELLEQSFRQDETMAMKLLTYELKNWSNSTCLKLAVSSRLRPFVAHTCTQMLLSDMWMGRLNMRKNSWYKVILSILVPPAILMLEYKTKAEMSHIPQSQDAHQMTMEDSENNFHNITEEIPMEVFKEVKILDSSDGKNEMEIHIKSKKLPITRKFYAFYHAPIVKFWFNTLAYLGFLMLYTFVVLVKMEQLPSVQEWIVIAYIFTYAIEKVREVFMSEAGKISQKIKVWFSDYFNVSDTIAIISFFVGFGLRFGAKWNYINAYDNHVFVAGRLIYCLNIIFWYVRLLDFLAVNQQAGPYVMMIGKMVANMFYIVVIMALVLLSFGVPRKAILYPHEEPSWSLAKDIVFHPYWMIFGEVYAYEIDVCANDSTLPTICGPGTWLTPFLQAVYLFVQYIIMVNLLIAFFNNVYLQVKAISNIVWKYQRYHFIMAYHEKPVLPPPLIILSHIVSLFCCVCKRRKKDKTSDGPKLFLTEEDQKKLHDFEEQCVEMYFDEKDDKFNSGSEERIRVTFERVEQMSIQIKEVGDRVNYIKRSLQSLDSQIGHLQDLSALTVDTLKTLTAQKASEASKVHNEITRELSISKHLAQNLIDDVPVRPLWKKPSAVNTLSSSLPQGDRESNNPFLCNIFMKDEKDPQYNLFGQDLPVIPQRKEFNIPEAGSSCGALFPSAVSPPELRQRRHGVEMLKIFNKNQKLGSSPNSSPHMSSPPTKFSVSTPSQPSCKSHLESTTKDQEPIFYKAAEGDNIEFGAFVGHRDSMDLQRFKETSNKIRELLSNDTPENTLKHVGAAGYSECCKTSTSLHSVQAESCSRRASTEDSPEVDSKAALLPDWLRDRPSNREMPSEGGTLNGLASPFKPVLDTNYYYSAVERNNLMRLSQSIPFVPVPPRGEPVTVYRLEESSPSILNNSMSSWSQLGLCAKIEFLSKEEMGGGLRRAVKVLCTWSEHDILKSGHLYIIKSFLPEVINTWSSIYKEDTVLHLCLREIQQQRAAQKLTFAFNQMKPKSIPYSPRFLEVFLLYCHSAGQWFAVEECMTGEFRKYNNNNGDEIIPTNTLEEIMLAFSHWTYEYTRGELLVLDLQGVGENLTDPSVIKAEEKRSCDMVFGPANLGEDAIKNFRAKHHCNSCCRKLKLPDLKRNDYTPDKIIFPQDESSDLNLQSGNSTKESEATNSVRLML
UniProt Q9BX84: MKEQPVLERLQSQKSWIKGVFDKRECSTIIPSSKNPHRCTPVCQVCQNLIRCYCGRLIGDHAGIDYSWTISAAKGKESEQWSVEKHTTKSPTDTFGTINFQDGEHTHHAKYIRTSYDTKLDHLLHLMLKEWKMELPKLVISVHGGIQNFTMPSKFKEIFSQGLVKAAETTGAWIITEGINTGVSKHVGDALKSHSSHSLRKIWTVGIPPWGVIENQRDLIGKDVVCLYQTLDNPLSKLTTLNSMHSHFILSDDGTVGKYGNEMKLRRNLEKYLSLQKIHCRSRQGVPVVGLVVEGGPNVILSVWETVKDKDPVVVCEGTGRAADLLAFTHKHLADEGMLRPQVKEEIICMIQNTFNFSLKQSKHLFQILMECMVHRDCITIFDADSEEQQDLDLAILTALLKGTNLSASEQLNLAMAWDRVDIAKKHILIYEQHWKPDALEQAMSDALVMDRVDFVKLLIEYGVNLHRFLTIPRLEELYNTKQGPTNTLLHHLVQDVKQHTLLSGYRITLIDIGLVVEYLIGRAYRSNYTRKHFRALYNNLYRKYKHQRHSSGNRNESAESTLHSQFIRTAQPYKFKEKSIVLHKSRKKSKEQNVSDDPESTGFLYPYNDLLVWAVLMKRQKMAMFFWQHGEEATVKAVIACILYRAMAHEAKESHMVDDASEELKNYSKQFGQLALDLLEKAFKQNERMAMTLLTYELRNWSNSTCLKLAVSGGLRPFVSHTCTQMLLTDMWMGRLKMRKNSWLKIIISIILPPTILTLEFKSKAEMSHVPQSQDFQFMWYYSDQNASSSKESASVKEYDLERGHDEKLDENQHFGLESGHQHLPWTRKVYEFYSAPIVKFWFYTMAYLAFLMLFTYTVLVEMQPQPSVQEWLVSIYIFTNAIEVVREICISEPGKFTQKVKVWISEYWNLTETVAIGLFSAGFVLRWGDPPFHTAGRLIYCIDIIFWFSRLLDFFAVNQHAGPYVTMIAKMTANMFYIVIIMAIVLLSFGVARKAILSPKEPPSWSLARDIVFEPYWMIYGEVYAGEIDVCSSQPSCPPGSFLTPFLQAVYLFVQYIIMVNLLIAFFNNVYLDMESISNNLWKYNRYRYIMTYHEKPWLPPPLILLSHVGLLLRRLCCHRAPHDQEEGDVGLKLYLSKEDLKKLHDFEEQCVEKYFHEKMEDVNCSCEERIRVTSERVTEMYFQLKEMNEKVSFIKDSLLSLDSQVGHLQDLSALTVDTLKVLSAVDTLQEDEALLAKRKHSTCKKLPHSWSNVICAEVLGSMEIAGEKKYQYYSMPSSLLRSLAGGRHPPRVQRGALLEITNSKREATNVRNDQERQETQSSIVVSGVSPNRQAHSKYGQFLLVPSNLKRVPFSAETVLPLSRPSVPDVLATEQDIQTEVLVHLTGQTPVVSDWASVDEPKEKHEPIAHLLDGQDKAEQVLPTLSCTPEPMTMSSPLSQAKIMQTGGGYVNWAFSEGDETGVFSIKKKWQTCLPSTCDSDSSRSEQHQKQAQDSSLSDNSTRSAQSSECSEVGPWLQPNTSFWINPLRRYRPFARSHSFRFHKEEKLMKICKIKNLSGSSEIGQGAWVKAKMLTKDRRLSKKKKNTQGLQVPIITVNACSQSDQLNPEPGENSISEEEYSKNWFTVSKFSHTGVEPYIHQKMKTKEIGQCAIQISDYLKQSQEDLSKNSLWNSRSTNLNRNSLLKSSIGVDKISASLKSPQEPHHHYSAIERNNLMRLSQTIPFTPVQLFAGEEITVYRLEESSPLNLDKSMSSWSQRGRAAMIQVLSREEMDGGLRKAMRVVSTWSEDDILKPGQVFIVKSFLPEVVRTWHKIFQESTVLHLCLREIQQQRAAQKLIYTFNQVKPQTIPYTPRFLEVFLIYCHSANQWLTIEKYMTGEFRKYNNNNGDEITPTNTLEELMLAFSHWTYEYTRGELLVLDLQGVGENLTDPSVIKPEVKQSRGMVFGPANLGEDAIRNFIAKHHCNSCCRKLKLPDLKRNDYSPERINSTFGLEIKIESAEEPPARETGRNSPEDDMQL
UniProt Q9NRU3: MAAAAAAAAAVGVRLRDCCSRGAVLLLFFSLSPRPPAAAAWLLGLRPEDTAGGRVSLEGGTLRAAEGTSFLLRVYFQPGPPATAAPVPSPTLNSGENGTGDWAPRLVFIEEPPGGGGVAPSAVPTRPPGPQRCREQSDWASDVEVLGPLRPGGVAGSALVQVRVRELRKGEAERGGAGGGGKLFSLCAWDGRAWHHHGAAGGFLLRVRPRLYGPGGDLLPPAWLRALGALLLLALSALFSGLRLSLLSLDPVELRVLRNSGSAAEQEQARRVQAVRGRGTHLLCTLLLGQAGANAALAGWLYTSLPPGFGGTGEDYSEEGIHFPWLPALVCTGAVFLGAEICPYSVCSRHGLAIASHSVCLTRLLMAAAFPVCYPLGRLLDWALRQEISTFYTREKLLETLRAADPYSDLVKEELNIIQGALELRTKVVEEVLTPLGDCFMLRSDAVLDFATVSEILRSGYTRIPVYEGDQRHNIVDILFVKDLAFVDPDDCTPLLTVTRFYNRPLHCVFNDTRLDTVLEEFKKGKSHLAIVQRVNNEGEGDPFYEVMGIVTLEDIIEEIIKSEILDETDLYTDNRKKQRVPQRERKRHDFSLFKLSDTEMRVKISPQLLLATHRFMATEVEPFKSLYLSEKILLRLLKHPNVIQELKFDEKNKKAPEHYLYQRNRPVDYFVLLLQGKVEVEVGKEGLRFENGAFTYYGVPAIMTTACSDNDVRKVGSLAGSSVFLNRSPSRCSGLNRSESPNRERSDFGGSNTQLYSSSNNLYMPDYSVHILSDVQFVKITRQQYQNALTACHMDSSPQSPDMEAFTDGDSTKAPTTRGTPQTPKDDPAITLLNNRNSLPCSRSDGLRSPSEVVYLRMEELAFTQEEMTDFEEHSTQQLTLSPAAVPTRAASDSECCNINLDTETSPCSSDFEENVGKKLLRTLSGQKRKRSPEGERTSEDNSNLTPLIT
UniProt O94759: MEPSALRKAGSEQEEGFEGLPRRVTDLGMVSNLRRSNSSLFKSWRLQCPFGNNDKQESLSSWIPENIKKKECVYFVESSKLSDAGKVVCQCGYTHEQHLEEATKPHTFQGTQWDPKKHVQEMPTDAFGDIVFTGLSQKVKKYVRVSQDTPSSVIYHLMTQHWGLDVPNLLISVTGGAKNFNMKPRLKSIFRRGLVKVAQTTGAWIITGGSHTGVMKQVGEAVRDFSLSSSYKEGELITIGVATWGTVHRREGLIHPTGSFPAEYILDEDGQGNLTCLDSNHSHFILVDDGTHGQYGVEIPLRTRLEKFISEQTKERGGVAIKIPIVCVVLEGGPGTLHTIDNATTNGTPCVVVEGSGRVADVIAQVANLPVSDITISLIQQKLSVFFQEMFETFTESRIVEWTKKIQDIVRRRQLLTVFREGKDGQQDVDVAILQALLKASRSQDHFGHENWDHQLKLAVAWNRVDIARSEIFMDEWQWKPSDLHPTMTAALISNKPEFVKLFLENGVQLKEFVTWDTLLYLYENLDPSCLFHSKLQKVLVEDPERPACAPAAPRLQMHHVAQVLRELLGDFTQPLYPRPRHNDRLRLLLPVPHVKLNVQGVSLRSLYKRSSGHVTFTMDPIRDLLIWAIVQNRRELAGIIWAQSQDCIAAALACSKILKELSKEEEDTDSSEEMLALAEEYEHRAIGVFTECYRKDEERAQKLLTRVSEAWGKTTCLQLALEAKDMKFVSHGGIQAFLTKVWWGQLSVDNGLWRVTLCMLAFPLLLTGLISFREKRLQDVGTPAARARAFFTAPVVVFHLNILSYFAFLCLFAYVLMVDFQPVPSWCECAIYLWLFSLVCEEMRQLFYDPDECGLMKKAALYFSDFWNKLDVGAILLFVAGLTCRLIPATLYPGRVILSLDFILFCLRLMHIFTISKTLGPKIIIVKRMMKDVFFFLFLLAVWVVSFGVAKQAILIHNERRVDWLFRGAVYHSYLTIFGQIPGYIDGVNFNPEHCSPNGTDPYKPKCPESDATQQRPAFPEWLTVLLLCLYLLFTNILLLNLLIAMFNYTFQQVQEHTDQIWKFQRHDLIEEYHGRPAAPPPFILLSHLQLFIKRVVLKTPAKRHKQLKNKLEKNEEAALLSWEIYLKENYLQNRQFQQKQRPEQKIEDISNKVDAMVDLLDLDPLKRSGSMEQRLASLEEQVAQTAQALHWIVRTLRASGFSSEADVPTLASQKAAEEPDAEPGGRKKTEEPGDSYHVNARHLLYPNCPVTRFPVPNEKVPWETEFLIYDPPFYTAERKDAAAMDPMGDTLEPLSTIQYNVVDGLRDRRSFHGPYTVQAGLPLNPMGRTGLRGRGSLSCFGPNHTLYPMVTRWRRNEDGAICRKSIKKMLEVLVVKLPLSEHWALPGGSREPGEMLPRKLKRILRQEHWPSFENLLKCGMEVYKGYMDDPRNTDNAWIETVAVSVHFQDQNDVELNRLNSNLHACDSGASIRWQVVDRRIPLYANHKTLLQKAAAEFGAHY

[5] = molecular target: T2, FLAG-tagged mouse CNNM2 (pCMV-4A) (mouse) (UniProt Q3TWN3); experiment: as above
T2 sequence: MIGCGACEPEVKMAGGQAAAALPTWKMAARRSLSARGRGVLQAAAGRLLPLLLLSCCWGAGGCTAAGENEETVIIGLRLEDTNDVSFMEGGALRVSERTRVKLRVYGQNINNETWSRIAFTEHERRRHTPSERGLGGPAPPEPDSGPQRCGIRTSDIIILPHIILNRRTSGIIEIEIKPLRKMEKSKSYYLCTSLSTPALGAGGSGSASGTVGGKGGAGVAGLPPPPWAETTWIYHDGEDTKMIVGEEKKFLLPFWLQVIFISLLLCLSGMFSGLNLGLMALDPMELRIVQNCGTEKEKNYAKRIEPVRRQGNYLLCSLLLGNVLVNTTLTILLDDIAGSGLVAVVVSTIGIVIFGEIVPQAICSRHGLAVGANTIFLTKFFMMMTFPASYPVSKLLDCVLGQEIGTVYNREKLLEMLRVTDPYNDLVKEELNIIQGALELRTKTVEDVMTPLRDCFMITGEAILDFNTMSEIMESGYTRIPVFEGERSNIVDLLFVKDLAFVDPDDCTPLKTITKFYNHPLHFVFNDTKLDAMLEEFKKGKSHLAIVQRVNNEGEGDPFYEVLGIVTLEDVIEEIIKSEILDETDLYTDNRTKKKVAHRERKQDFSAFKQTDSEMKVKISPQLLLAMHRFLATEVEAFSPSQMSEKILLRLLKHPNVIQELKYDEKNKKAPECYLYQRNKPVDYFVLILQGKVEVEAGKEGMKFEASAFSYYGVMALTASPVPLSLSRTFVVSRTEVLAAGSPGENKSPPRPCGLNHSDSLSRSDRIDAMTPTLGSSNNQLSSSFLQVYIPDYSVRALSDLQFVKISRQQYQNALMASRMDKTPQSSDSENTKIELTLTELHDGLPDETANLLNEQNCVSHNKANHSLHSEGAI

[6] = molecular target: native TRPM7 of ZR-75-1 breast cancer cells (human (endogenous in ZR-75-1)) (UniProt Q96QT4); experiment: co-IP; native TRPM7 immunoprecipitated overnight from ZR-75-1 cells with 2 μg Anti-TRPM7 antibody (Alomone Labs #ACC-047) bound to Protein A agarose, blot for native CNNM4
[7] = molecular target: T3, native CNNM3 (endogenous, human cell lines) (human (endogenous in HEK-293, HEK-293T, Hela, HAP1)) (UniProt Q8NE01); experiment: co-IP; immunoprecipitation of native CNNM3 or native CNNM4, blot for the other native isoform; anti-myc antibody as negative control; cells not named (S16 Fig E, F)
T3 sequence: T1 sequence

[8] = molecular target: HA-tagged TRPM7 (pcDNA5-FRT-TO-HA-TRPM7) (mouse) (UniProt Q923J1); experiment: co-IP; overexpressed tagged channel immunoprecipitated from HEK-293 cells, blots for native CNNM3 and CNNM4 (Fig 1B); lysis buffer 50 mM TRIS (pH 7.4), 150 mM NaCl, 1% Igepal 630
FLAG-TRPM2 = FLAG-TRPM2 (UniProt O94759); experiment: as above
[9] = molecular target: HA-tagged mouse TRPM7 expressed from the recombinant adenovirus pAd/CMV/V5-SR-TRPM7 (Ad-TRPM7-HA) (mouse) (UniProt Q923J1); experiment: co-IP; HA-TRPM7 expressed in HAP1 cells by viral transduction (Ad-TRPM7-HA), immunoprecipitated with HA-agarose, blots for native CNNMs
[10] = molecular target: HA-tagged TRPM7 (pcDNA5-FRT-TO-HA-TRPM7) (mouse) (UniProt Q923J1); experiment: co-IP; HA-TRPM7 transiently transfected into Hela cells, immunoprecipitated with HA-agarose, blots for native CNNMs
[11] = molecular target: T4, FLAG-tagged human CNNM4 (pCMV-4A) (human) (UniProt Q6P4Q7); experiment: co-IP; FLAG-CNNM isoforms individually expressed in HEK-293T cells and immunoprecipitated, blots for native CNNM isoforms (S16 Fig A-D)
T4 sequence: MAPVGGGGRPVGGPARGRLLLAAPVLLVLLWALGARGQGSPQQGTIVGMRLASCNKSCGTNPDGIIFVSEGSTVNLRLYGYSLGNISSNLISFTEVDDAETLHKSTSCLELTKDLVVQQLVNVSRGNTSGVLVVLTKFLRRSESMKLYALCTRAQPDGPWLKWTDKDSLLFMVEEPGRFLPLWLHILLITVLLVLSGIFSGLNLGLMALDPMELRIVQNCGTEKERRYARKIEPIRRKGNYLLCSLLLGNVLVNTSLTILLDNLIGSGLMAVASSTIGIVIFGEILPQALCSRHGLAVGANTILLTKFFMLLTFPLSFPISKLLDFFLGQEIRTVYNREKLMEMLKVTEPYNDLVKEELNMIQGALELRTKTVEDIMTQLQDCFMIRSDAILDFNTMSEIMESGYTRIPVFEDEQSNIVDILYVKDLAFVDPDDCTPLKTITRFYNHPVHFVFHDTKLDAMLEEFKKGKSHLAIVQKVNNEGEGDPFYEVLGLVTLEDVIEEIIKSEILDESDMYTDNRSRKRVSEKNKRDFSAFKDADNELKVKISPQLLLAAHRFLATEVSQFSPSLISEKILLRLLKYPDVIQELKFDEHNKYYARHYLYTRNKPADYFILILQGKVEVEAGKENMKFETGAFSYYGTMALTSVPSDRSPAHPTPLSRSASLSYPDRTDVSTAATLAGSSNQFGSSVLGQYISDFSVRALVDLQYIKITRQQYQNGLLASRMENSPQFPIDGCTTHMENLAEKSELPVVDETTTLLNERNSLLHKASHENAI

[12] = molecular target: T5, native CNNM4 (endogenous, human cell lines) (human (endogenous in HEK-293, HEK-293T, Hela, HAP1, ZR-75-1)) (UniProt Q6P4Q7); experiment: co-IP; immunoprecipitation of native CNNM3 or native CNNM4, blot for the other native isoform; anti-myc antibody as negative control; cells not named (S16 Fig E, F)
T5 sequence: T4 sequence

binding [1]: binds | binding [2]: binds
Molecule: FLAG-tagged human CNNM1 (pCMV-4A) (from UniProt Q9NRU3 1-951)

binding [3]: binds | binding [4]: binds | binding [5]: no binding | binding [6]: binds | binding [7]: binds | binding [8]: binds | binding (FLAG-TRPM2): no binding | binding [9]: binds weakly | binding [10]: binds
B1: native CNNM4 (endogenous, human cell lines) (protein, UniProt Q6P4Q7 1-775)
chain: T4 sequence

binding [11]: binds | binding [5]: binds | binding [12]: binds | binding [8]: binds | binding (FLAG-TRPM2): no binding | binding [9]: binds weakly | binding [10]: binds
B2: native CNNM3 (endogenous, human cell lines) (protein, UniProt Q8NE01 1-707)
chain: T1 sequence
